Test results as given in the antibiotic and cytotoxicity screens of Wong et al. (2023).
This is one part of the list.

Experiments:
[1] = test system: HSkMC (human skeletal muscle cells); experiment: cytotoxicity call (relative viability < 0.9); settings: 10 µM
[2] = test system: HepG2; experiment: cytotoxicity call (relative viability < 0.9); settings: 10 µM
[3] = test system: S. aureus RN4220; experiment: growth inhibition call (relative growth <= 0.2); settings: 50 µM

Row | Structure (SMILES) | cytotoxicity call [1] | cytotoxicity call [2] | growth inhibition call [3]
1 | COC(=O)C[C@H]1CC[C@@H]2[C@H](COc3ccc(NS(=O)(=O)c4ccccc4Cl)cc3C(=O)N2C)O1 | inactive | inactive | inactive
2 | O=C(C[C@H]1CC[C@@H]2[C@H](COC[C@@H](O)CN2C(=O)c2cccnc2)O1)NCc1ccc(-c2ccccc2)cc1 | inactive | inactive | inactive
3 | Cc1ccc(S(=O)(=O)N(C)C[C@H]2Oc3c(NS(=O)(=O)c4c(C)noc4C)cccc3C(=O)N([C@H](C)CO)C[C@H]2C)cc1 | inactive | inactive | inactive
4 | C[C@@H]1CN([C@H](C)CO)C(=O)Cc2cc(NS(=O)(=O)c3ccc(Cl)cc3)ccc2O[C@@H]1CN(C)Cc1ccc(Cl)c(Cl)c1 | active | active | inactive
5 | C[C@@H]1CN([C@H](C)CO)C(=O)c2cc(NC(=O)Cc3ccccc3)ccc2O[C@@H]1CN(C)Cc1ccc(-c2ccccc2)cc1 | inactive | inactive | inactive
6 | C[C@@H]1CN([C@@H](C)CO)C(=O)c2cccc(NC(=O)c3cnccn3)c2O[C@H]1CN(C)S(=O)(=O)c1ccc(F)cc1 | inactive | inactive | inactive
7 | C[C@@H]1CCCCO[C@@H](CN(C)C(=O)Nc2cccc3ccccc23)[C@H](C)CN([C@@H](C)CO)C(=O)c2cc(NS(=O)(=O)c3ccccc3)ccc2O1 | inactive | inactive | inactive
8 | CC(=O)O[C@H]1C[C@@]2(C)[C@@H](C[C@@H](O)[C@H]3[C@@]4(C)CC[C@@H](O)[C@@H](C)[C@H]4CC[C@@]32C)C1=C(CCC=C(C)C)C(=O)O | inactive | inactive | active
9 | C=C1[N-]O[N+](O)=C1CN(Cc1c(C)no[n+]1[O-])OC(C)=O | inactive | inactive | inactive
10 | O=[N+]([O-])c1cncn1CCN1CCOCC1 | inactive | inactive | inactive
11 | C[C@@H]1CN([C@@H](C)CO)S(=O)(=O)c2ccc(C#CC3CCCC3)cc2O[C@H]1CN(C)Cc1cncnc1 | inactive | inactive | inactive
12 | CC1=C(/C=C/C(C)=C/C=C/C(C)=C/C=C/C=C(C)/C=C/C=C(C)/C=C/C2=C(C)C(=O)[C@@H](O)CC2(C)C)C(C)(C)C[C@H](O)C1=O | inactive | inactive | inactive
13 | C/C=C/c1ccc2c(c1)O[C@@H](CN(C)C(=O)c1ccc3c(c1)OCO3)[C@@H](C)CN([C@@H](C)CO)S2(=O)=O | inactive | inactive | inactive
14 | Cc1ccc(S(=O)(=O)Nc2ccc3c(c2)C(=O)N([C@H](C)CO)C[C@@H](C)[C@H](CN(C)Cc2ccncc2)OCCCC[C@H](C)O3)cc1 | inactive | inactive | inactive
15 | CC(C)NC(=O)Nc1cccc2c1O[C@@H](CN(C)S(=O)(=O)c1ccc(F)cc1)[C@@H](C)CN([C@@H](C)CO)C2=O | inactive | inactive | inactive
16 | C[C@H](CO)N1C[C@H](C)[C@@H](CN(C)Cc2ccc(C(F)(F)F)cc2)OCCCC[C@H](C)Oc2ccc(NC(=O)Nc3cccc4ccccc34)cc2C1=O | inactive | active | inactive
17 | C[C@@H]1CN([C@H](C)CO)C(=O)CCCn2nncc2CO[C@H]1CN(C)Cc1cccc2c1OCCCO2 | inactive | inactive | inactive
18 | COc1ccc(NC(=O)Nc2ccc3c(c2)C(=O)N([C@H](C)CO)C[C@@H](C)[C@H](CN(C)C(=O)Nc2cccc4ccccc24)O3)cc1 | inactive | inactive | inactive
19 | NC(=S)N1CCCC1 | inactive | inactive | inactive

Row | Structure (SMILES) | cytotoxicity call [1] | cytotoxicity call [2] | growth inhibition call [3]
20 | COc1ccc(S(=O)(=O)Nc2ccc3c(c2)C(=O)N([C@@H](C)CO)C[C@H](C)[C@@H](CN(C)Cc2ccncc2)O3)cc1 | inactive | inactive | inactive
21 | COc1ccc(CN(C)C[C@H]2OCCCC[C@H](C)Oc3ccc(NS(=O)(=O)c4ccc(F)cc4)cc3C(=O)N([C@@H](C)CO)C[C@@H]2C)cc1 | inactive | inactive | inactive
22 | C[C@H]1CN([C@@H](C)CO)C(=O)CCCn2nncc2CO[C@H]1CN(C)S(=O)(=O)c1ccc(-c2ccccc2)cc1 | inactive | inactive | inactive
23 | C[C@H]1NC(=O)N[C@@H]1CCCCC(=O)O | inactive | inactive | inactive
24 | COc1ccc2cc1Oc1ccc(cc1)CC1c3cc(c(OC)cc3CCN1C)Oc1c(OC)c(OC)cc3c1C(C2)N(C)CC3 (stereo not drawn) | inactive | inactive | inactive
25 | C[C@H](CO)N1C[C@H](C)[C@H](CN(C)Cc2ccc(Oc3ccccc3)cc2)Oc2ccc(NC(=O)Cc3ccccc3)cc2CC1=O | inactive | inactive | inactive
26 | O=[N+]([O-])c1ccc2nc(CO)[nH]c2c1 | inactive | inactive | inactive
27 | C[C@@H]1CN([C@H](C)CO)C(=O)CCCn2cc(nn2)CO[C@H]1CN(C)S(=O)(=O)c1ccc(Oc2ccccc2)nc1 | inactive | inactive | inactive
28 | Cc1noc(C)c1NC(=O)Nc1ccc2c(c1)C(=O)N([C@H](C)CO)C[C@H](C)[C@H](CN(C)Cc1ccc(C(F)(F)F)cc1)OCCCC[C@@H](C)O2 | inactive | inactive | inactive
29 | CC(C)CC#Cc1ccc2c(c1)O[C@@H](CN(C)C(=O)c1ccccn1)[C@@H](C)CN([C@H](C)CO)S2(=O)=O | inactive | inactive | inactive
30 | Cc1nn(C)cc1NC(=O)C[C@H]1CC[C@@H]2[C@@H](COc3ccc(NC(=O)C4CCOCC4)cc3C(=O)N2C)O1 | inactive | inactive | inactive
31 | C[C@H](CO)N1C[C@H](C)[C@@H](CN(C)C(=O)Cc2ccccc2)OCCCC[C@H](C)Oc2ccc(NC(=O)CCC(F)(F)F)cc2C1=O | inactive | inactive | inactive
32 | C=CCOc1ccc(CNn2nnnc2N)cc1 | inactive | inactive | inactive
33 | C[C@@H]1CN([C@H](C)CO)C(=O)c2cc(NS(=O)(=O)c3ccccc3)ccc2O[C@@H](C)CCCCO[C@H]1CN(C)S(=O)(=O)c1ccc(Cl)cc1 | active | active | inactive
34 | C[C@H]1COC(=O)[C@@H](Cc2ccc(F)cc2)CC=CC[C@@H](CC(=O)N(CCO)Cc2ccccc2)C(=O)N1 | inactive | inactive | inactive
35 | C[C@H]1CN([C@@H](C)CO)C(=O)c2cccc(NS(=O)(=O)c3ccc(F)cc3)c2O[C@@H]1CN(C)S(=O)(=O)c1cn(C)cn1 | inactive | inactive | inactive
36 | CC(=O)SCC(Cc1ccccc1)C(=O)NCC(=O)OCc1ccccc1 (stereo not drawn) | inactive | inactive | inactive
37 | CCS(=O)(=O)NC[C@@]12COC[C@H]1CN(c1cc(OC)ncn1)C2 | inactive | inactive | inactive
38 | NC1CCN(Cc2ccccc2)CC1 | inactive | inactive | inactive

Row | Structure (SMILES) | cytotoxicity call [1] | cytotoxicity call [2] | growth inhibition call [3]
39 | C[C@H]1CN([C@@H](C)CO)S(=O)(=O)c2ccc(C#Cc3cccnc3)cc2O[C@@H]1CN(C)C(=O)CN(C)C | inactive | inactive | inactive
40 | CC=Cc1ccc2n(c1=O)C[C@@H]1[C@@H](CO)[C@H](C(=O)NCCc3cn(C)cn3)[C@H]2N1C(=O)CC | inactive | inactive | inactive
41 | COc1ccc(S(=O)(=O)Nc2ccc3c(c2)C(=O)N([C@@H](C)CO)C[C@H](C)[C@H](CN(C)C(=O)NC2CCCCC2)OCCCC[C@H](C)O3)cc1 | inactive | inactive | inactive
42 | O=C(C[C@@H]1C=C[C@H](NC(=O)CN2CCOCC2)[C@@H](CO)O1)NCc1cccc(F)c1 | inactive | inactive | inactive
43 | C[C@H](CO)N1C[C@H](C)[C@@H](CN(C)Cc2ccc(C(=O)O)cc2)OCCCC[C@H](C)Oc2ccc(NS(=O)(=O)c3ccc(Cl)cc3)cc2C1=O | inactive | inactive | inactive
44 | C[C@H](CO)N1C[C@H](C)[C@H](CN(C)C(=O)Nc2ccc3c(c2)OCO3)Oc2ccc(NC(=O)c3ccncc3)cc2C1=O | inactive | inactive | inactive
45 | C[C@@H]1CN([C@@H](C)CO)C(=O)Cc2cc(NC(=O)CCC(F)(F)F)ccc2O[C@@H]1CN(C)Cc1ccc(C(=O)Nc2ccccc2N)cc1 | inactive | inactive | inactive
46 | C[C@@H]1CCCCO[C@H](CN(C)Cc2ccc(C(=O)O)cc2)[C@@H](C)CN([C@H](C)CO)C(=O)c2cc(NC(=O)Nc3ccc(C(F)(F)F)cc3)ccc2O1 | inactive | inactive | inactive
47 | O=C(C[C@H]1CC[C@@H]2[C@H](COC[C@@H](O)CN2S(=O)(=O)c2ccccc2Cl)O1)NCc1ccccc1Cl | inactive | inactive | inactive
48 | COc1ccccc1-c1cnc2c(c1)C(=O)N([C@H](C)CO)C[C@H](C)[C@@H](CN(C)C(=O)c1ccncc1)O2 | inactive | inactive | inactive
49 | OCC(O)C(O)C(O)C(O)CO (stereo not drawn) | inactive | inactive | inactive
50 | C[C@H]1CCCCO[C@H](CN(C)S(=O)(=O)c2cccs2)[C@@H](C)CN([C@@H](C)CO)C(=O)c2cc(NC(=O)Nc3ccccc3)ccc2O1 | inactive | inactive | inactive
51 | COc1ccc(CN(C)C[C@H]2Oc3c(NS(C)(=O)=O)cccc3C(=O)N([C@H](C)CO)C[C@@H]2C)cc1 | inactive | inactive | inactive
52 | CC(C)(C)c1ccc(S(=O)(=O)Nc2nccnc2-c2ccc(CNCc3ccc4c(c3)OCO4)cc2)cc1 | inactive | inactive | inactive
53 | COc1ccc(C=CC(=O)Nc2ccccc2C(=O)O)cc1OC | inactive | inactive | inactive
54 | C[C@@H]1CN([C@H](C)CO)S(=O)(=O)c2ccc(C#CC3(O)CCCC3)cc2O[C@H]1CN(C)C(=O)c1ccncc1 | inactive | inactive | inactive
55 | C[C@@H]1CN([C@H](C)CO)C(=O)c2cc(NC(=O)c3ccncc3)ccc2O[C@H]1CN(C)Cc1ccncc1 | inactive | inactive | inactive
56 | C[C@H](CO)N1C[C@H](C)[C@H](CN(C)S(=O)(=O)c2ccccc2F)Oc2cc(C#Cc3ccccc3)ccc2S1(=O)=O | inactive | inactive | inactive
